{"source": "paper PMC9889658", "about": "“The structure of MadC from Clostridium maddingley reveals new insights into class I lanthipeptide cyclases” (Frontiers in Microbiology, 2023)", "origin": "cited, not measured here", "settings": "ref Garg et al., 2012", "source_text": "Alternatively, the β-sheet could be essential for the predicted 4 intertwined rings at the C-terminus of MadA. To predict the rings in maddinglicin RiPPMiner was used ([Agrawal et al., 2017], [2021]). Furthermore, BAGEL4 and RiPPMiner also identified structurally related or sequence similar lantibiotics such as geobacillin I (GeoI; [van Heel et al., 2018]). […] Due to the high similarity, these lantibiotics likely share the same ring architecture (or also similar ring size), which w ...", "note": "No end group written: not given here.", "data": [{"sequence": "MAKFDDFDLDIVVKKQDDVVQPNVTSKSLCTPGCITGVLMCLTQNSCVSCNSCIRC (also: bicyclic or more (positions not given here)) [GeoI]", "values": [{"measurement": "stability compared to NisA", "result": "higher stability"}]}]}
